pIC50: −log10 of the molar value. The IC50 comes from the fitted curve, where viability falls to half of the control; fits outside the tested doses are given as limits. AUC sums up the same curve from the lowest dose to the 256-fold higher top dose; values near 1 show little effect. For some assays here: A top dose marked as inferred is not printed in the source and was worked back from the curve model. For some assays here: Where an entry number is given, a second screen of the drug exists; the two often differ.
Key:
Assay in all cases: Viability of human cancer cell lines after 72 h of drug (GDSC screen)
CUDC-101 = compound: C#Cc1cccc(Nc2ncnc3cc(OC)c(OCCCCCCC(=O)NO)cc23)c1 [CUDC-101]; details: top dose 5.12 µM; top dose inferred
Procedure: (§1)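 Human cancer cell lines in 384-well plates, medium with 10% serum, drug for 72 h over a 256-fold dose range (nine 2-fold or five 4-fold steps up to the top dose). Adherent lines were fixed and stained with the nucleic acid dye Syto60, suspension lines read with resazurin; signal relative to control wells, capped at 0 and 100%. One two-parameter sigmoid per drug and line, fitted in a mixed model over all curves with the slope shared within a line.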

AC220 = compound: CC(C)(C)c1cc(NC(=O)Nc2ccc(-c3cn4c(n3)sc3cc(OCCN5CCOCC5)ccc34)cc2)no1 [AC220]; details: top dose 1.024 µM; top dose inferred
Procedure: as §1

RDEA119 = compound: COc1cc(F)c(F)c(Nc2ccc(I)cc2F)c1NS(=O)(=O)C1(C[C@H](O)CO)CC1 [RDEA119]; details: top dose 5 µM, top dose inferred
Procedure: as §1

JNK-9L = compound: Fc1cc(-c2ccnc(Nc3ccc(-n4cnc(N5CCOCC5)n4)cc3)n2)cc(N2CCOCC2)c1 [JNK-9L]; details: top dose 5.12 µM; top dose inferred
Procedure: as §1

OSU-03012 = compound: NCC(=O)Nc1ccc(-n2nc(C(F)(F)F)cc2-c2ccc3c(ccc4ccccc43)c2)cc1 [OSU-03012]; details: top dose 16 µM; top dose inferred
Procedure: as §1

5-Fluorouracil = compound: O=c1[nH]cc(F)c(=O)[nH]1 [5-Fluorouracil]; details: top dose 32 µM; top dose inferred
Procedure: as §1

QS11 = compound: OC[C@H](Cc1ccccc1)Nc1nc(Oc2ccc3c(c2)CCC3)nc2c1ncn2Cc1ccc(-c2ccccc2)cc1 [QS11]; details: top dose 10.24 µM
Procedure: as §1

Cell Line | AUC (CUDC-101) | pIC50 (CUDC-101) | AUC (AC220) | pIC50 (AC220) | AUC (RDEA119; screen: GDSC drug entry 1014) | pIC50 (RDEA119; screen: GDSC drug entry 1014) | AUC (RDEA119; screen: GDSC drug entry 1526) | pIC50 (RDEA119; screen: GDSC drug entry 1526) | AUC (JNK-9L) | pIC50 (JNK-9L) | AUC (OSU-03012) | pIC50 (OSU-03012) | AUC (5-Fluorouracil) | pIC50 (5-Fluorouracil) | AUC (QS11) | pIC50 (QS11)
KON (head and neck, adherent) | 0.899 | < 5.29 | 0.986 | < 5.99 | 0.759 | 5.77 | 0.828 | 5.52 | 0.471 | 6.57 | 0.631 | 5.64 | 0.984 | < 4.49 | 0.857 | 5.10
HuP-T4 (pancreas, adherent) | 0.427 | 6.70 | 0.971 | < 5.99 | 0.505 | 6.49 |  |  | 0.813 | 5.53 | 0.641 | 5.60 | 0.486 | 5.74 | 0.835 | 5.13
OAW-28 (ovary, adherent) | 0.32 | 7.06 | 0.979 | < 5.99 | 0.966 | < 5.30 | 0.974 | < 5.30 | 0.653 | 6.02 | 0.871 | < 4.80 | 0.947 | < 4.49 | 0.909 | < 4.99
U-118-MG (glioma, adherent) | 0.711 | 5.85 | 0.954 | < 5.99 | 0.854 | 5.30 | 0.924 | < 5.30 | 0.877 | < 5.29 | 0.872 | < 4.80 | 0.986 | < 4.49 | 0.942 | < 4.99
LCLC-103H (large cell lung carcinoma, adherent) | 0.581 | 6.28 | 0.988 | < 5.99 | 0.986 | < 5.30 | 0.99 | < 5.30 | 0.356 | 6.88 | 0.616 | 5.69 | 0.817 | 4.80 | 0.67 | 5.74
SNU-449 (liver, adherent) | 0.801 | 5.56 | 0.986 | < 5.99 | 0.829 | 5.45 | 0.776 | 5.66 | 0.602 | 6.20 | 0.752 | 5.24 | 0.923 | < 4.49 | 0.534 | 6.10
COLO-680N (oesophagus, adherent) | 0.958 | < 5.29 | 0.977 | < 5.99 | 0.949 | < 5.30 | 0.906 | < 5.30 | 0.561 | 6.31 | 0.703 | 5.38 | 0.974 | < 4.49 | 0.972 | < 4.99
MHH-NB-11 (neuroblastoma, adherent) | 0.354 | 6.92 | 0.981 | < 5.99 | 0.612 | 6.18 |  |  | 0.69 | 5.94 | 0.974 | < 4.80 | 0.451 | 5.84 | 0.985 | < 4.99
OCUM-1 (stomach, adherent) | 0.967 | < 5.29 | 0.987 | < 5.99 | 0.265 | 7.21 |  |  | 0.606 | 6.19 | 0.873 | < 4.80 | 0.934 | < 4.49 | 0.975 | < 4.99
NCI-H2452 (mesothelioma, adherent) | 0.935 | < 5.29 | 0.984 | < 5.99 | 0.856 | < 5.30 | 0.843 | 5.34 | 0.697 | 5.89 | 0.955 | < 4.80 | 0.955 | < 4.49 | 0.984 | < 4.99
RPMI-8402 (T-cell lymphoblastic leukaemia, suspension) | 0.175 | 7.38 | 0.94 | < 5.99 | 0.991 | < 5.30 | 0.977 | < 5.30 | 0.55 | 6.37 | 0.637 | 5.65 | 0.628 | 5.37 | 0.929 | < 4.99
OE21 (oesophagus, adherent) | 0.67 | 5.94 | 0.973 | < 5.99 | 0.711 | 5.81 | 0.775 | 5.56 | 0.515 | 6.45 | 0.687 | 5.39 | 0.919 | < 4.49 | 0.85 | < 4.99
LB996-RCC (kidney, adherent) | 0.773 | 5.63 | 0.983 | < 5.99 | 0.939 | < 5.30 | 0.853 | 5.31 | 0.586 | 6.24 | 0.863 | < 4.80 | 0.977 | < 4.49 | 0.976 | < 4.99
A388 (skin, adherent) | 0.634 | 6.10 | 0.983 | < 5.99 | 0.867 | < 5.30 | 0.875 | < 5.30 | 0.773 | 5.64 | 0.69 | 5.43 | 0.883 | < 4.49 | 0.931 | < 4.99
ATN-1 (T-cell lymphoblastic leukaemia, suspension) | 0.375 | 6.83 | 0.98 | < 5.99 | 0.975 | < 5.30 | 0.985 | < 5.30 | 0.608 | 6.21 | 0.875 | 4.86 | 0.378 | 6.02 | 0.976 | < 4.99
647-V (bladder, adherent) | 0.785 | 5.66 | 0.987 | < 5.99 | 0.847 | 5.43 | 0.885 | < 5.30 | 0.521 | 6.44 | 0.708 | 5.41 | 0.851 | 4.61 | 0.925 | < 4.99
SK-N-SH (neuroblastoma, adherent) | 0.536 | 6.40 | 0.987 | < 5.99 | 0.876 | 5.31 | 0.883 | < 5.30 | 0.358 | 6.89 | 0.77 | 5.22 | 0.907 | < 4.49 | 0.987 | < 4.99

Source: the supplement of paper PMC4967469
